# T1: human IL-1R-I (human, UniProt P14778 18-332, limits assumed)
# T1 construct: bought recombinant protein; also called hIL-1R-I; hIL-1RI
# T1 sequence (looked up): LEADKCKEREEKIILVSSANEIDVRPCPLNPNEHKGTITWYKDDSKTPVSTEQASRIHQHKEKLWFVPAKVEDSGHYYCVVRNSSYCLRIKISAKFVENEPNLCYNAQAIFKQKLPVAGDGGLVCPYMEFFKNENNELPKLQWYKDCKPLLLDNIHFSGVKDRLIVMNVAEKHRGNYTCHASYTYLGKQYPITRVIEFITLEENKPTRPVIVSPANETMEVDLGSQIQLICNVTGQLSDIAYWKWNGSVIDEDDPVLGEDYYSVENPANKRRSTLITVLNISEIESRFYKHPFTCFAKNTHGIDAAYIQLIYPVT
# Molecular target: T1, human IL-1R-I
# Test: SPR screening; Z-ABD captured on anti-ABD, 100 nM hIL-1R-I injected
row,Kd,Binder
1,3.1 nM,Z19153 (Z-ABD) (designed binder) AQHDEALEVDAKYAKEIEEIQMEIFDLPNLTRRQYTAFIRKLLDDPSQSSELLSEAKKLNDSQAPKVDYVLAEAKVLANRELDKYGVSDYYKNLINNAKTVEGVKALIDEILAALPYVPG
2,16 nM,Z19135 (Z-ABD) (designed binder) AQHDEALEVDAKYAKEVEAAQMEIFKLPNLTRKQYTAFIRKLLDDPSQSSELLSEAKKLNDSQAPKVDYVLAEAKVLANRELDKYGVSDYYKNLINNAKTVEGVKALIDEILAALPYVPG
3,4.2 nM,Z19117 (Z-ABD) (designed binder) AQHDEALEVDAKYAKEIEAIQLEIFALPNLTRKQYTAFIRKLLDDPSQSSELLSEAKKLNDSQAPKVDYVLAEAKVLANRELDKYGVSDYYKNLINNAKTVEGVKALIDEILAALPYVPG
4,3.1 nM,Z19144 (Z-ABD) (designed binder) AQHDEALEVDAKYAKEIEEVQMEIFALPNLTRKQYTAFIRKLFDDPSQSSELLSEAKKLNDSQAPKVDYVLAEAKVLANRELDKYGVSDYYKNLINNAKTVEGVKALIDEILAALPYVPG
5,11 nM,Z19123 (Z-ABD) (designed binder) AQHDEALEVDAKYAKEIEKAQMEIFALPNLTRRQYTAFIRKLLDDPSQSSELLSEAKKLNDSQAPKVDYVLAEAKVLANRELDKYGVSDYYKNLINNAKTVEGVKALIDEILAALPYVPG
6,9.8 nM,Z19127 (Z-ABD) (designed binder) AQHDEALEVDAKYAKEVVSAYYEIYELPNLTRKQYTAFIRKLLDDPSQSSELLSEAKKLNDSQAPKVDYVLAEAKVLANRELDKYGVSDYYKNLINNAKTVEGVKALIDEILAALPYVPG
7,3.5 nM,Z19166 (Z-ABD) (designed binder) AQHDEALEVDAKYAKELEEVQMEIYFLPNLTRRQYTAFIRKLLDDPSQSSELLSEAKKLNDSQAPKVDYVLAEAKVLANRELDKYGVSDYYKNLINNAKTVEGVKALIDEILAALPYVPG
8,2.7 nM,Z19151 (Z-ABD) (designed binder) AQHDEALEVDAKYAKEVEDIQLEIFALPNLTRRQYTAFIRKLLDDPSQSSELLSEAKKLNDSQAPKVDYVLAEAKVLANRELDKYGVSDYYKNLINNAKTVEGVKALIDEILAALPYVPG
9,17 nM,Z19141 (Z-ABD) (designed binder) AQHDEALEVDAKYAKEVEEIQHEIYDLPNLTRKQYTAFIRKLLDDPSQSSELLSEAKKLNDSQAPKVDYVLAEAKVLANRELDKYGVSDYYKNLINNAKTVEGVKALIDEILAALPYVPG
10,2.9 nM,Z19146 (Z-ABD) (designed binder) AQHDEALEVDAKYAKETEAVQMEIFALPNLTRKQYTAFIRKLLDDPSQSSELLSEAKKLNDSQAPKVDYVLAEAKVLANRELDKYGVSDYYKNLINNAKTVEGVKALIDEILAALPYVPG
11,1.9 nM,Z19159 (Z-ABD) (designed binder) AQHDEALEVDAKYAKETEEVQMEIFALPNLTRRQYTAFIRKLLDDPSQSSELLSEAKKLNDSQAPKVDYVLAEAKVLANRELDKYGVSDYYKNLINNAKTVEGVKALIDEILAALPYVPG
12,1.4 nM,Z19143 (Z-ABD) (designed binder) AQHDEALEVDAKYAKEVEEIQLEIFHLPNLTRRQYTAFIIKLLDDPSQSSELLSEAKKLNDSQAPKVDYVLAEAKVLANRELDKYGVSDYYKNLINNAKTVEGVKALIDEILAALPYVPG
13,3.8 nM,Z19160 (Z-ABD) (designed binder) AQHDEALEVDAKYAKEIEIIQMEIFYLPNLTRKQYTAFIRKLLDDPSQSSELLSEAKKLNDSQAPKVDYVLAEAKVLANRELDKYGVSDYYKNLINNAKTVEGVKALIDEILAALPYVPG
14,2.4 nM,Z19147 (Z-ABD) (designed binder) AQHDEALEVDAKYAKELEEIQMEIFYLPNLTRRQYTAFIRKLLDDPSQSSELLSEAKKLNDSQAPKVDYVLAEAKVLANRELDKYGVSDYYKNLINNAKTVEGVKALIDEILAALPYVPG
15,8.4 nM,Z19118 (Z-ABD) (designed binder) AQHDEALEVDAKYAKEIEHVQYEIFALPNLTRKQYTAFIRKLLDDPSQSSELLSEAKKLNDSQAPKVDYVLAEAKVLANRELDKYGVSDYYKNLINNAKTVEGVKALIDEILAALPYVPG
16,1.5 nM,Z19158 (Z-ABD) (designed binder) AQHDEALEVDAKYAKETEEIQMEIFALPNLTRRQYTAFIRKLLDDPSQSSELLSEAKKLNDSQAPKVDYVLAEAKVLANRELDKYGVSDYYKNLINNAKTVEGVKALIDEILAALPYVPG

# More lines, now with the values behind:
row,Binder,Kd
1,Z19043 (Z-ABD) (designed binder) AQHDEALEVDAKYAKEIEEIQMEIYYLPNLTRRQYTAFIRKLLDDPSQSSELLSEAKKLNDSQAPKVDYVLAEAKVLANRELDKYGVSDYYKNLINNAKTVEGVKALIDEILAALPYVPG,3.4 nM
2,Z19094 (Z-ABD) (designed binder) AQHDEALEVDAKYAKETEAAQMEIYKLPNLTRKQYTAFIRKLLDDPSQSSELLSEAKKLNDSQAPKVDYVLAEAKVLANRELDKYGVSDYYKNLINNAKTVEGVKALIDEILAALPYVPG,18 nM
3,Z19090 (Z-ABD) (designed binder) AQHDEALEVDAKYAKEIEEVQMEIFHLPNLTRRQYTAFIRKLLDDPSQSSELLSEAKKLNDSQAPKVDYVLAEAKVLANRELDKYGVSDYYKNLINNAKTVEGVKALIDEILAALPYVPG,3 nM
4,Z19053 (Z-ABD) (designed binder) AQHDEALEVDAKYAKEIEDVQLEIFKLPNLTRRQYTAFIRKLLDDPSQSSELLSEAKKLNDSQAPKVDYVLAEAKVLANRELDKYGVSDYYKNLINNAKTVEGVKALIDEILAALPYVPG,8.7 nM
5,Z19057 (Z-ABD) (designed binder) AQHDEALEVDAKYAKEIEQVQLEIFGLPNLTRKQYTAFIRKLLDDPSQSSELLSEAKKLNDSQAPKVDYVLAEAKVLANRELDKYGVSDYYKNLINNAKTVEGVKALIDEILAALPYVPG,4.2 nM
6,Z19075 (Z-ABD) (designed binder) AQHDEALEVDAKYAKEVEIIQYEIFGLPNLTRKQYTAFIRKLLDDPSQSSELLSEAKKLNDSQAPKVDYVLAEAKVLANRELDKYGVSDYYKNLINNAKTVEGVKALIDEILAALPYVPG,4.8 nM
7,Z19056 (Z-ABD) (designed binder) AQHDEALEVDAKYAKEVEEIQLEIYALPNLTRKQYTAFIRKLLDDPSQSSELLSEAKKLNDSQAPKVDYVLAEAKVLANRELDKYGVSDYYKNLINNAKTVEGVKALIDEILAALPYVPG,6.9 nM
8,Z19079 (Z-ABD) (designed binder) AQHDEALEVDAKYAKEVEQAQMEIFKLPNLTRKQYTAFIRKLLDDPSQSSELLSEAKKLNDSQAPKVDYVLAEAKVLANRELDKYGVSDYYKNLINNAKTVEGVKALIDEILAALPYVPG,14 nM
9,Z19054 (Z-ABD) (designed binder) AQHDEALEVDAKYAKEIEWVQLEIFHLPNLTRKQYTAFIRKLLDDPSQSSELLSEAKKLNDSQAPKVDYVLAEAKVLANRELDKYGVSDYYKNLINNAKTVEGVKALIDEILAALPYVPG,7 nM
10,Z19099 (Z-ABD) (designed binder) AQHDEALEVDAKYAKEVEEIQLEIFRLPNLTRRQYTAFIRKLLDDPSQSSELLSEAKKLNDSQAPKVDYVLAEAKVLANRELDKYGVSDYYKNLINNAKTVEGVKALIDEILAALPYVPG,3.8 nM
11,Z19059 (Z-ABD) (designed binder) AQHDEALEVDAKYAKEVEEAQMEIYGLPNLTRKQYTAFIRKLLDDPSQSSELLSEAKKLNDSQAPKVDYVLAEAKVLANRELDKYGVSDYYKNLINNAKTVEGVKALIDEILAALPYVPG,9.2 nM
12,Z19085 (Z-ABD) (designed binder) AQHDEALEVDAKYAKEVEEIQYEIFGLPNLTRKQYTAFIRKLLDDPSQSSELLSEAKKLNDSQAPKVDYVLAEAKVLANRELDKYGVSDYYKNLINNAKTVEGVKALIDEILAALPYVPG,4.9 nM
13,Z19078 (Z-ABD) (designed binder) AQHDEALEVDAKYAKEIEAAQMEIFGLPNLTRKQYTAFIRKLLDDPSQSSELLSEAKKLNDSQAPKVDYVLAEAKVLANRELDKYGVSDYYKNLINNAKTVEGVKALIDEILAALPYVPG,9.5 nM
14,Z19107 (Z-ABD) (designed binder) AQHDEALEVDAKYAKETEEVQYEIFALPNLTRKQYTAFIRKLLDDPSQSSELLSEAKKLNDSQAPKVDYVLAEAKVLANRELDKYGVSDYYKNLINNAKTVEGVKALIDEILAALPYVPG,6.7 nM
15,Z19115 (Z-ABD) (designed binder) AQHDEALEVDAKYAKETEEIQLEIFSLPNLTRKQYTAFIRKLLDDPSQSSELLSEAKKLNDSQAPKVDYVLAEAKVLANRELDKYGVSDYYKNLINNAKTVEGVKALIDEILAALPYVPG,6.1 nM
16,Z19060 (Z-ABD) (designed binder) AQHDEALEVDAKYAKEVEWAQMEIFDLPNLTRKQYTAFIRKLLDDPSQSSELLSEAKKLNDSQAPKVDYVLAEAKVLANRELDKYGVSDYYKNLINNAKTVEGVKALIDEILAALPYVPG,10 nM
17,Z19072 (Z-ABD) (designed binder) AQHDEALEVDAKYAKEIEEIQLEIFSLPNLTRKQYTAFIRKLLDDPSQSSELLSEAKKLNDSQAPKVDYVLAEAKVLANRELDKYGVSDYYKNLINNAKTVEGVKALIDEILAALPYVPG,5.2 nM

# From patent publication US20250066451A1 (SWEDISH ORPHAN BIOVITRUM AB PUBL, published 2025)
